Assay results: publication PMC4336329 (PLoS ONE, 2015)
Hit rate of the full screen: of about 310,000 compounds, about 14,000 (4.5%) showed an effect of 50% or more. The effect is printed as a negative number. This is one part of the list.

Target: human ether-à-go-go-related gene (hERG) potassium channel (human, UniProt Q12809)
Test: primary screen, population patch clamp on CHO cells stably expressing hERG
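Note: peak tail current of the secondary pulse compared with the same well before compound.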

Sequence of human ether-à-go-go-related gene (hERG) potassium channel (Q12809 whole entry, looked up): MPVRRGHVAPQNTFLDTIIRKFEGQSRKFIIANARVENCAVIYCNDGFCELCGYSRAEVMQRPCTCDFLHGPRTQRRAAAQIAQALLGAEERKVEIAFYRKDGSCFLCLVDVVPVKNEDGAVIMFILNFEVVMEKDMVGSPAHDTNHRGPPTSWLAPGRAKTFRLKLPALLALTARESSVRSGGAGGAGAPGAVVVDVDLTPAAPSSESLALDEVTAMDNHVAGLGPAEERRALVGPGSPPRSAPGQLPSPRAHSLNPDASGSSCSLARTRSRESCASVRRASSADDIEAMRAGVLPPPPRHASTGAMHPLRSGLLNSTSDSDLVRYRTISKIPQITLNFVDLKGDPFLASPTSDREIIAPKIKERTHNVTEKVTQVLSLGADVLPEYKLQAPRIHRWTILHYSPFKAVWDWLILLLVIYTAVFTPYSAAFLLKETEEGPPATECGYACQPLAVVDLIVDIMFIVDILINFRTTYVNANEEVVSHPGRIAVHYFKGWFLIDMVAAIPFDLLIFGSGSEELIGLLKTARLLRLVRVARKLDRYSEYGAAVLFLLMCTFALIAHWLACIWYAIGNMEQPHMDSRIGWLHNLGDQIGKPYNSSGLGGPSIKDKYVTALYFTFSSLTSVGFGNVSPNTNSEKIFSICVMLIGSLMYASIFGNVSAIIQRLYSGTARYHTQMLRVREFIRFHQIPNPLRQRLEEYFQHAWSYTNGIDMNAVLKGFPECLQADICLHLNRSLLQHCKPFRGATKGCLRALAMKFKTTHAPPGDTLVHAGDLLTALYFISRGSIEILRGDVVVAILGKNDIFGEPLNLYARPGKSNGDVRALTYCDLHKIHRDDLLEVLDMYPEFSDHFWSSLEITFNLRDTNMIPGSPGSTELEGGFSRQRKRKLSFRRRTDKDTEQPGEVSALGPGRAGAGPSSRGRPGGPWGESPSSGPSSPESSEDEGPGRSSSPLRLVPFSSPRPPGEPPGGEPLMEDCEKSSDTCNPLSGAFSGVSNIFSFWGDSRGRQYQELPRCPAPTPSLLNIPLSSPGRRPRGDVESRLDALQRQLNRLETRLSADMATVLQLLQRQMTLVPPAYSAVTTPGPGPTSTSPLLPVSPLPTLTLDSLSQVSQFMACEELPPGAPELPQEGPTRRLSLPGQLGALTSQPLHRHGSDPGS

Compared with `Cc1cc(C)cc(N(CC(=O)N2CCOCC2)S(=O)(=O)c2ccccc2)c1`, `CSc1ccc(S(=O)(=O)Nc2ccc(OCC(=O)N3CCOCC3)cc2)cc1` is higher in “hERG current change (%, negative = inhibition) at 10uM” value: -56.1% for the first, 5.18% for the second.

First: O=C(CSc1nnc(NC(=O)c2cc(Br)ccc2Cl)s1)NCC1CCCO1 (stereo not shown)
Second: O=C1C(Cl)=C(NCC2CCCO2)C(=O)N1Cc1ccccc1 (stereo not shown)
The “hERG current change (%, negative = inhibition) at 10uM” value of the first is higher: 18.9% for the first, -5.45% for the second.

Compared with `CCN(CC)S(=O)(=O)c1ccc(OC)c(-n2cnnn2)c1`, `COC(=O)c1cccc(-n2cnnn2)c1` is lower in “hERG current change (%, negative = inhibition) at 10uM” value: 11.5% for the first, 10.7% for the second.

Compared with `CCOC(=O)c1sc(NC(=O)CCN2CCC(C)CC2)c(C(=O)OCC)c1C`, `CCOC(=O)c1c(C)[nH]c(C)c1S(=O)(=O)N(C)CC(=O)NCc1ccc(C)cc1` is lower in “hERG current change (%, negative = inhibition) at 10uM” value: 9% for the first, -6.66% for the second.

Compared with `CC1Cc2ccccc2N1C(=O)CSc1nnc(-c2ccc(S(=O)(=O)N3CCOCC3)cc2)n1C` (stereo not shown), `Cc1cc(C(=O)Nc2ccccc2N2CCOCC2)ccc1[N+](=O)[O-]` is higher in “hERG current change (%, negative = inhibition) at 10uM” value: -1.02% for the first, -0.267% for the second.

Going from `Cc1cccc(C)c1OCc1cc(C(=O)N2CCC(c3ccncc3)CC2)no1` to `COc1cccc(-c2nnn(CC(=O)N3CCC(C)CC3)n2)c1`, the “hERG current change (%, negative = inhibition) at 10uM” value rises from -55.8% to 15.2%.

First: CCc1ccc(S(=O)(=O)NCc2csc(C)n2)s1
Second: CCOc1c(C)cc(S(=O)(=O)NCc2cccnc2)c(C)c1C
The “hERG current change (%, negative = inhibition) at 10uM” value of the first is lower: 1.6% for the first, 17.5% for the second.

First: CC(C)CC(=O)NN1CCCCC1
Second: Cc1ccc(S(=O)(=O)N2CCCCC2)cc1NC(=O)Cn1ccsc1=N.Cl
The “hERG current change (%, negative = inhibition) at 10uM” value of the first is higher: 2.9% for the first, -33.7% for the second.

Compared with `CN1CCN(c2ccc([N+](=O)[O-])cc2C(=O)N2CCOCC2)CC1`, `COc1ccc(S(=O)(=O)N2CCN(c3ccc(F)cc3)CC2)cc1C(=O)N1CCCC1` is lower in “hERG current change (%, negative = inhibition) at 10uM” value: 12.3% for the first, -10.9% for the second.

Going from `CCn1c(O)c(C=NCc2ccccc2)sc1=S` to `CCn1c(C)cc(=S)c2ccccc21`, the “hERG current change (%, negative = inhibition) at 10uM” value falls from 7.15% to -7.86%.

First: COc1ccccc1NC(=S)NC1CCCCCCCCCCC1
Second: CC(NC(=O)NC1CCCCC1)C(c1cccs1)N1CCOCC1 (stereo not shown)
The “hERG current change (%, negative = inhibition) at 10uM” value of the first is lower: 9.77% for the first, 12.3% for the second.

First: CCOC(=O)CSc1nc2cc3c(cc2cc1C#N)OCCO3
Second: O=C(c1ccc2c(c1)OCCO2)N(c1ccccn1)C1CCCCC1
The “hERG current change (%, negative = inhibition) at 10uM” value of the first is higher: 19% for the first, 2.06% for the second.

Compared with `CCc1ccc(C(=O)Cn2cnc3cc([N+](=O)[O-])ccc3c2=O)cc1`, `CCOC(=O)Cn1nc(-c2ccc(C)cc2)c2ccccc2c1=O` is higher in “hERG current change (%, negative = inhibition) at 10uM” value: -12.4% for the first, 35.8% for the second.

Compared with `CCC(NC(=O)C(C)NC)C(=O)N1CCCC1C(=O)NC1CCCc2ccccc21.O=CO` (stereo not shown), `CC(OC(=O)c1cn(C)c2ccccc12)C(=O)N1CCCC1` (stereo not shown) is higher in “hERG current change (%, negative = inhibition) at 10uM” value: 11.1% for the first, 16.4% for the second.

Going from `COc1ccc(OC)c(CCNC(=O)Cn2cccc2C(=O)c2ccccc2)c1` to `COc1ccc(CCNC(=S)c2ccccc2)cc1OC`, the “hERG current change (%, negative = inhibition) at 10uM” value rises from -8.08% to 1.76%.

Compared with `CC1CCN(C2=NC(=O)/C(=C/c3ccc(O)cc3)S2)CC1`, `CC1CCN(c2ccc(C(F)(F)F)cc2N)CC1` is higher in “hERG current change (%, negative = inhibition) at 10uM” value: -24.7% for the first, -0.321% for the second.

Going from `COc1cccc(CN2CCCC(C(=O)Nc3ccc(-c4cscn4)cc3)C2)c1` (stereo not shown) to `COc1ccc(NC(=O)C2CCCN2S(=O)(=O)c2ccc(Cl)cc2)cc1` (stereo not shown), the “hERG current change (%, negative = inhibition) at 10uM” value rises from -31.1% to 3.26%.

Compared with `Cc1cccc(/C=N/Nc2cc(N3CCOCC3)nc(N3CCOCC3)n2)c1`, `O=C(c1cc2ccccc2o1)N1CCN(c2ccccn2)CC1` is lower in “hERG current change (%, negative = inhibition) at 10uM” value: 5.07% for the first, -1.59% for the second.

First: NNC(=O)c1n[nH]c(=O)c2ccccc12
Second: O=C(CC1(O)C(=O)Nc2cc(Cl)cc(Cl)c21)c1ccccc1O (stereo not shown)
The “hERG current change (%, negative = inhibition) at 10uM” value of the first is lower: -5.39% for the first, 6.92% for the second.

First: Cc1cc(Cl)cc(C)c1OCCNCc1ccccc1.O=C(O)C(=O)O
Second: Cl.O=C(COc1ccccc1CNCc1ccccc1)Nc1ccccc1
The “hERG current change (%, negative = inhibition) at 10uM” value of the first is higher: -3.66% for the first, -34.8% for the second.

Going from `O=C(CSc1nnnn1-c1ccc(C(=O)O)cc1)NC1CC1` to `O=C(CSc1nnnn1-c1ccccc1)c1cc2ccccc2oc1=O`, the “hERG current change (%, negative = inhibition) at 10uM” value rises from 2.23% to 8.25%.

Going from `CCOc1ccc(N(CC(=O)NCCSCc2ccco2)S(=O)(=O)c2ccc(C)cc2)cc1` to `Cc1ccc(S(=O)(=O)N(OCc2ccccc2)C(C)C(=O)O)cc1` (stereo not shown), the “hERG current change (%, negative = inhibition) at 10uM” value rises from 10.1% to 12.4%.

Compared with `CC1CN(S(=O)(=O)c2cccc(C(F)(F)F)c2)C(C)N1C(=O)N1CCOCC1` (stereo not shown), `Cl.O=S(=O)(c1ccc(OCC(O)CNCc2ccco2)c(Cl)c1)N1CCOCC1` (stereo not shown) is lower in “hERG current change (%, negative = inhibition) at 10uM” value: 24.9% for the first, -22.6% for the second.

Compared with `CC(C)(C)c1ccc(OCc2ccc(C(=O)N/N=C/c3ccc([N+](=O)[O-])cc3)o2)cc1`, `COC(=O)c1ccc2c(c1)C(=O)/C(=C/c1ccc(C)cc1)O2` is lower in “hERG current change (%, negative = inhibition) at 10uM” value: 3.69% for the first, -4.95% for the second.

Going from `O=C(O)Cn1nc(C(F)(F)F)c2c1CCCCC2` to `O=C(NCc1ccccn1)c1cccc(S(=O)(=O)N2CCCCC2)c1`, the “hERG current change (%, negative = inhibition) at 10uM” value falls from -2.55% to -35.3%.

Compared with `COC(=O)c1cc(=O)n(Cc2ccco2)c(=Nc2ccc(F)cc2)s1`, `O=C(NNS(=O)(=O)c1ccccc1)Nc1ccc(F)cc1` is higher in “hERG current change (%, negative = inhibition) at 10uM” value: -7.31% for the first, 16.5% for the second.

Compared with `O=C(COc1coc(CN2CCN(c3ccccc3)CC2)cc1=O)NC1CCCC1`, `COc1ccc(-c2nnn(CC(=O)N(CCN3CCOCC3)C(C(=O)NC3CCCCC3)c3ccco3)n2)cc1` (stereo not shown) is higher in “hERG current change (%, negative = inhibition) at 10uM” value: -13.6% for the first, -10.3% for the second.

Compared with `Cc1ccc(C)c(N2CCN(CCCNC(=O)Cn3c(=O)c4cccn4c4cccnc43)CC2)c1`, `COc1ccc(C(CNC(=O)c2cc(S(=O)(=O)NCc3ccccc3)ccc2C)N2CCOCC2)cc1` (stereo not shown) is higher in “hERG current change (%, negative = inhibition) at 10uM” value: -59.6% for the first, -19% for the second.

First: CCSc1nnc(CNC(=O)C23CC4CC(CC(C4)C2)C3)n1Cc1ccccc1
Second: O=C(OCc1nnc(-c2ccccc2)o1)c1ccc(Br)o1
The “hERG current change (%, negative = inhibition) at 10uM” value of the first is lower: -5.81% for the first, 8.29% for the second.

Going from `CC(=O)Nc1nc(-c2ccc(Cl)cc2)nc(C)c1C(C)=O` to `COCc1cc(Sc2ccc(Cl)cc2)nc(-c2ccccc2)n1`, the “hERG current change (%, negative = inhibition) at 10uM” value rises from -19.8% to -6.47%.

Going from `COc1ccc(C2CC2C(=O)c2ccccn2)cc1` (stereo not shown) to `COc1ccc(C2CC(c3cccc(OC)c3)n3nc(N)nc3N2)cc1` (stereo not shown), the “hERG current change (%, negative = inhibition) at 10uM” value falls from 8.72% to -12.8%.

Compared with `CCOC(=O)c1ccc(N2C(=O)CC(Sc3nnc(C)s3)C2=O)cc1` (stereo not shown), `CCOc1ccc(N2C(=O)/C(=C/c3cccs3)N(C)C2=S)cc1` is higher in “hERG current change (%, negative = inhibition) at 10uM” value: 9.58% for the first, 15.3% for the second.

First: COCc1[nH]nc2c1C(c1cc(OC)c(O)c(OC)c1)C(C#N)=C(N)O2 (stereo not shown)
Second: COc1ccc(OC)c(C2C(C(=O)c3cc4ccccc4o3)=C(O)C(=O)N2c2cc(C)on2)c1 (stereo not shown)
The “hERG current change (%, negative = inhibition) at 10uM” value of the first is higher: 7.72% for the first, 2.7% for the second.

First: CCCn1nc(NC(=O)c2cccs2)c2cc3ccccc3nc21
Second: O=C(Nc1ccncc1)c1cn(-c2ccccc2)nc1-c1cccs1
The “hERG current change (%, negative = inhibition) at 10uM” value of the first is lower: -25.8% for the first, 9.81% for the second.

Compared with `Cc1ccc(Sc2c([N+](=O)[O-])ncn2C)cc1`, `Cc1ccc(C)c(Nc2cc(C)nc3ncnn23)c1` is higher in “hERG current change (%, negative = inhibition) at 10uM” value: 3.39% for the first, 5.63% for the second.

First: CC(C)c1cc(C(F)(F)F)n2nc(C(=O)Nc3ccc(-n4cnnn4)cc3)cc2n1
Second: Cc1cc(OCCCC(=O)Nc2cccc(-n3cnnn3)c2)ccc1Cl
The “hERG current change (%, negative = inhibition) at 10uM” value of the first is higher: 14.2% for the first, 3.45% for the second.

Going from `Cc1nc(Cl)c2oc3ccccc3c2n1` to `Cc1n[nH]c(=S)n(/N=C/c2ccccn2)c1=O`, the “hERG current change (%, negative = inhibition) at 10uM” value rises from 9.28% to 23.3%.

Going from `CCCCN(CC)C(=O)Cc1c(C(=O)O)[nH]c2ccc(Cl)cc12` to `CCOC(=O)CCCNC(=O)COC(=O)/C=C/c1ccc2c(c1)OCO2`, the “hERG current change (%, negative = inhibition) at 10uM” value falls from 12.4% to -2.45%.

Compared with `CCOc1ccccc1NC(=S)NNS(=O)(=O)c1c(C)cc(C)cc1C`, `CCC(C)(C)NC(=O)CN(Cc1cccs1)C(=O)CNS(=O)(=O)c1ccc(C)cc1` is lower in “hERG current change (%, negative = inhibition) at 10uM” value: 20.6% for the first, -5.08% for the second.

First: CNc1snc(C)c1C(=O)OCC(=O)c1cc(F)ccc1OC
Second: CCOC(=O)Cc1ncccc1C(=O)Nc1ccc(OC(F)(F)F)cc1
The “hERG current change (%, negative = inhibition) at 10uM” value of the first is lower: -22.4% for the first, 2.6% for the second.

Going from `CC(N)Cc1c[nH]c2ccc(OCc3cccs3)cc12.Cl` (stereo not shown) to `Cl.Cn1c(=N)n(CC(O)c2ccco2)c2ccccc21` (stereo not shown), the “hERG current change (%, negative = inhibition) at 10uM” value rises from -43.1% to -9.79%.

First: CC(C)NC(=S)N1CCn2c(nc3ccccc32)C1
Second: COc1ccc(N2CCN(C(=S)NC(C)c3ccccc3)CC2)cc1 (stereo not shown)
The “hERG current change (%, negative = inhibition) at 10uM” value of the first is higher: 15% for the first, 5.25% for the second.

First: CC(=O)c1sc(N)nc1C
Second: CCOC(=O)Cn1c(-c2cccnc2)nc(-c2ccccc2)c1-c1ccccc1
The “hERG current change (%, negative = inhibition) at 10uM” value of the first is higher: 15.4% for the first, 0.903% for the second.

Compared with `CC(C)CCC(C(=O)O)C(C)CC(=O)NNC(=O)c1ccco1` (stereo not shown), `O=C(Nc1cccc(C(=O)O)c1)/C(=C\c1ccco1)NC(=O)c1ccc(Br)o1` is lower in “hERG current change (%, negative = inhibition) at 10uM” value: 7.82% for the first, -28.1% for the second.

Going from `COc1cc(C=O)ccc1OC(=O)Nc1ccccc1` to `CC(=O)Nc1ccc(S(=O)(=O)NC2(C(F)(F)F)N=C(c3ccccc3)NC2=O)cc1` (stereo not shown), the “hERG current change (%, negative = inhibition) at 10uM” value rises from 5.93% to 16.6%.

With `N#CC1(c2ccccc2)CCC(=NO)CC1` (stereo not shown) the “hERG current change (%, negative = inhibition) at 10uM” value was 11.2%.
